Drawing on the supplement of paper PMC4723716, this text covers viability index for 35 molecules.

± gives the uncertainty stated by the source. The full ranking holds about 9,900 compounds; the median of “viability index relative to DMSO control” is about 1, and the lowest 2% start at about 0.85. This is one part of the list.

This experiment deals with Plasmodium falciparum NF54 stage V gametocytes. Briefly: viability index relative to DMSO control (fraction); higher = less gametocyte killing. Particulars: 2.5 µM, incubation time: 72 h. As to the method:
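Broad DOS informer set and blood-stage-active DOS compounds screened in duplicate at 2.5 µM against P. falciparum NF54 stage V gametocytes with the serum-free one-step SaLSSA (1536-well): 72 h at 37 °C under low oxygen, then saponin lysis and MitoTracker Red CMXRos staining, with high-content imaging. Viability index = viable-object count divided by the plate mean of DMSO wells (0 = killed, about 1 = inactive).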

[1] abbreviates: library set: Broad Institute DOS.

For `C[C@@H]1CN([C@@H](C)CO)C(=O)c2ccccc2-c2ccccc2CO[C@H]1CN(C)C(=O)Nc1ccc(-c2ccccc2)cc1`, the viability index under setting [1] stood at 0.975 ± 0.018.

As for `CNC[C@@H]1OCCCC[C@@H](C)Oc2ccc(NC(=O)Nc3ccc(OC)cc3)cc2C(=O)N([C@H](C)CO)C[C@H]1C`, under setting [1], the viability index was determined as 1.05 ± 0.011.

For the molecule `CN1C(=O)c2cc(NC(=O)C3CCOCC3)ccc2OC[C@@H]2O[C@@H](CC(=O)NCC3CCCCC3)CC[C@H]21`, the viability index under setting [1] stood at 1.11 ± 0.084.

`COc1ccccc1CN1[C@@H]2CN(C(=O)c3cccnc3)c3ccccc3[C@@H]2[C@@H]1CO` gave a viability index under setting [1] of 1.03 ± 0.042.

`CS(=O)(=O)Nc1ccc2c(c1)[C@H]1C[C@H](CC(=O)NCCc3ccccc3)O[C@@H](CO)[C@H]1O2` gave a viability index under setting [1] of 1.07 ± 0.012.

For the molecule `CC(C)NC(=O)N1[C@@H]2CN(C)c3ccccc3[C@@H]2[C@@H]1CO`, the viability index under setting [1] came to 1.05 ± 0.055.

Turning to `COc1ccc(-c2ccccc2[C@@H]2[C@@H](C#N)N(C(=O)C3CCC3)[C@H]2CO)cc1`, under setting [1], the viability index amounted to 1.15 ± 0.092.

For `COc1ccc([C@H]2C/C=C\C[C@@H](c3cccc(Cl)c3)NC(=O)[C@H](c3ccccc3)CC(=O)N2)c(OC)c1`, the viability index under setting [1] worked out at 0.989 ± 0.1.

Molecule `CN(C)C(=O)c1cccc(-c2cccc(-c3nc(C(=O)NC4CCCCC4)cc4c3[C@@H](CCO)N([S@](=O)C(C)(C)C)C4)c2)c1` gave a viability index (library set: Broad Institute Blood Stage) of 0.954 ± 0.088.

As for `C[C@@H]1CN([C@@H](C)CO)C(=O)c2cc(NS(=O)(=O)c3ccc(F)cc3)ccc2O[C@@H](C)CCCCO[C@@H]1CN(C)C(=O)Nc1ccc2c(c1)OCO2`, the viability index under setting [1] amounted to 1.11 ± 0.14.

On to `COCC(=O)Nc1ccc2c(c1)C(=O)N(C)[C@H]1CC[C@H](CC(=O)N3CCc4ccccc4C3)O[C@@H]1CO2`, for which the viability index under setting [1] stood at 1.01 ± 0.016.

Under setting [1], `CO[C@H]1CN(C)C(=O)c2cc(NC(=O)C3CCCCC3)ccc2OC[C@@H](C)N(C(=O)c2ccccc2)C[C@@H]1C` registered a viability index of 1.03 ± 0.039.

The molecule `O=C(C[C@H]1CC[C@@H]2[C@H](COC[C@@H](O)CN2C(=O)Nc2cc(Cl)cc(Cl)c2)O1)N1CCOCC1` returned a viability index under setting [1] of 0.96 ± 0.12.

Consider `N#C[C@@H]1[C@@H](c2ccc(C3=CCCCC3)cc2)[C@H](CO)N1C(=O)CN1CCOCC1`, for which the viability index under setting [1] came to 1.069 ± 0.0057.

Under setting [1], `COc1ccccc1-c1cnc2c(c1)C(=O)N([C@H](C)CO)C[C@@H](C)[C@@H](CN(C)C(=O)CC1CC1)O2` registered a viability index of 1.056 ± 0.0053.

`Cc1cc(C(=O)Nc2cccc3c2O[C@@H](CN(C)C)[C@@H](C)CN([C@@H](C)CO)C3=O)n(C)n1`: the viability index under setting [1] was 1.024 ± 0.0082.

As to `C[C@@H]1CN([C@H](C)CO)S(=O)(=O)c2ccc(C#CC3(O)CCCC3)cc2O[C@@H]1CN(C)C(=O)Nc1cccc(F)c1`, under setting [1], the viability index turned out to be 0.965 ± 0.016.

Molecule `COc1ccc(-c2ccccc2[C@H]2[C@@H](CO)N(C(=O)NC3CCCCC3)[C@H]2C#N)cc1` gave a viability index under setting [1] of 1.18 ± 0.088.

The molecule `CC(C)C#Cc1ccc([C@H]2[C@@H](CO)N3C(=O)CN(S(=O)(=O)c4ccccc4)C[C@@H]23)cc1` had a viability index under setting [1] of 0.939 ± 0.059.

Molecule `CC(C)COC(=O)N(C)C[C@H]1OCc2ccccc2-c2ccccc2C(=O)N([C@@H](C)CO)C[C@@H]1C` gave a viability index under setting [1] of 1.09 ± 0.021.

The molecule `CC(=O)N1[C@H](CO)[C@H](c2ccccc2)[C@H]1CNC(=O)CN1CCOCC1` returned a viability index under setting [1] of 1.07 ± 0.026.

For `Cc1ccccc1-c1ccc([C@H]2[C@@H](CO)N3C(=O)CN(C(=O)c4ccncc4)C[C@H]23)cc1`, the viability index under setting [1] turned out to be 1.03 ± 0.041.

On to `C/C=C/c1ccc2n(c1=O)C[C@@H]1[C@@H](CO)[C@H](C(=O)N[C@H](C)c3ccccc3)[C@H]2N1Cc1cncnc1.C/C=C\c1ccc2n(c1=O)C[C@@H]1[C@@H](CO)[C@H](C(=O)N[C@H](C)c3ccccc3)[C@H]2N1Cc1cncnc1`, for which the viability index under setting [1] amounted to 1.03 ± 0.042.

Turning to `Cc1ccc(-c2ccccc2[C@@H]2[C@H](C#N)N(C(=O)c3cccc(F)c3)[C@H]2CO)cc1`, the viability index under setting [1] came to 1.181 ± 0.0029.

For `CCC(=O)N1C[C@]2(CCN(CC2)C(=O)Nc2ccccc2F)c2c([nH]c3cc(OC)ccc23)[C@@H]1CO`, the viability index under setting [1] was 0.642 ± 0.081.

`C[C@@H]1CCCCO[C@H](CN(C)CC2CCCCC2)[C@H](C)CN([C@H](C)CO)C(=O)c2cc(NC(=O)Nc3ccc(C(F)(F)F)cc3)ccc2O1` had a viability index under setting [1] of 1.14 ± 0.023.

As for `C/C=C/c1ccc2c(c1)[C@@H]1[C@@H](CCN1S(=O)(=O)c1ccccc1OC)[C@H](CO)N2C`, under setting [1], the viability index came out at 0.947 ± 0.08.

Turning to `O=C(O)C[C@H]1C=C[C@H](NC(=O)Nc2cc(F)ccc2F)[C@H](CO)O1`, under setting [1], the viability index turned out to be 1.01 ± 0.14.

For the molecule `C[C@H]1CCCCO[C@@H](CN(C)Cc2ccc(C(=O)O)cc2)[C@@H](C)CN([C@@H](C)CO)C(=O)c2cc(N(C)C)ccc2O1`, the viability index under setting [1] came to 1.04 ± 0.12.

Turning to `CCCNC(=O)[C@H]1[C@H](CO)[C@H]2Cn3c(cccc3=O)[C@H]2N1Cc1cccc(F)c1`, the viability index under setting [1] amounted to 1.03 ± 0.0043.

The molecule `C/C=C/c1ccc([C@@H]2[C@H](C#N)N(C(=O)NC3CCCCC3)[C@H]2CO)cc1` came in with a viability index under setting [1] of 1.016 ± 0.0013.

For the molecule `COC(=O)C[C@@H]1C[C@H]2c3cc(NC(=O)C4CCOCC4)ccc3O[C@H]2[C@H](CO)O1`, the viability index under setting [1] was 1.121 ± 0.0024.

Under setting [1], `C[C@H](CO)N1C[C@H](C)[C@H](CN(C)C(=O)Nc2cccc3ccccc23)OCCCC[C@H](C)Oc2ccc(NC(=O)CCC(F)(F)F)cc2C1=O` came in with a viability index of 1.04 ± 0.048.

Turning to `COc1ccc(S(=O)(=O)N(C)C[C@@H]2OCCCC[C@@H](C)Oc3ccc(NC(=O)Cc4ccccc4)cc3C(=O)N([C@@H](C)CO)C[C@H]2C)cc1`, the viability index under setting [1] was 0.9785 ± 0.0051.

In the case of `C[C@@H]1CN([C@@H](C)CO)C(=O)Cc2cc(NC(=O)CCC(F)(F)F)ccc2O[C@@H]1CN(C)CC1CC1`, the viability index under setting [1] was 1.04 ± 0.075.
